Measured values taken from PubChem BioAssay AID1030 (National Center for Advancing Translational Sciences (NCATS), 2008).
Among all 220,000 compounds or so, about 16,000 (7.3%) were called active. Inconclusive results, whose numbers are uncertain, are shown with a selection of clear calls. Calls follow the shape of the dose curve; as a rule, active = well fitted inhibition curve with a large enough effect (not every such curve was filed as active); inconclusive = small, poorly fitted or top-dose-only effect, or another doubt; inactive = no such curve, though single readings can be large or run the other way. Potencies of inconclusive entries are left out as doubtful fits.

What follows are compounds tested against Aldehyde dehydrogenase 1A1 (Homo sapiens) (UniProt P00352) (assay: qHTS Assay for Inhibitors of Aldehyde Dehydrogenase 1 (ALDH1A1)). Settings: Purified ALDH1A1, NADH fluorescence, propionaldehyde substrate; series mostly up to 75.3 µM.
Sequence of UniProt P00352 (P00352 whole entry, looked up): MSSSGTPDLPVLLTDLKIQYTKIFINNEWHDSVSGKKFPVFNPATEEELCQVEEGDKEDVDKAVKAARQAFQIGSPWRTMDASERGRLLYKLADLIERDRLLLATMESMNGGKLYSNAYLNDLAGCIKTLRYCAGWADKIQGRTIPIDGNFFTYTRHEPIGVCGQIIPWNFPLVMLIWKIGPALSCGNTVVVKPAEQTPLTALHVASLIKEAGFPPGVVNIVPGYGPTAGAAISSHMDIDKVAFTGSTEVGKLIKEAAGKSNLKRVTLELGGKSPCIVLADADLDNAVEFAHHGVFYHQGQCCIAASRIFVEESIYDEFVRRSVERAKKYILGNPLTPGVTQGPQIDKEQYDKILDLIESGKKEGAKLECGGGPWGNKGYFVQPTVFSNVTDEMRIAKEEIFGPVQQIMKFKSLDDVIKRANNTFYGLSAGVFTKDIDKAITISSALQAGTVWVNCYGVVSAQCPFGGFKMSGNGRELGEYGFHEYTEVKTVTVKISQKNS
Potency is read from the fitted curve at half-maximal effect; tags tell the direction and shape of the fitted curve.

| SMILES | Potency |
| --- | --- |
| Cc1ccc(NC(=O)COC(=O)CSC(=S)N2CCOCC2)cc1 | inactive |
| CCC1S/C(=N/N=C/c2cccs2)NC1=O (stereo not drawn) | inactive |
| Nn1c(SCC(=O)N2CCOCC2)nnc1-c1ccccc1Cl | inactive |
| COc1ccc(C2NCCc3c2[nH]c2ccccc32)cc1COc1ccc(F)cc1 (stereo not drawn) | inactive |
| Cc1c(N=C/C=C/c2ccccc2)c(=O)n(-c2ccccc2)n1C | inconclusive [inhibitor, single point] |
| O=[N+]([O-])c1cccc(S(=O)(=O)c2ccc(N3CCCCC3)c([N+](=O)[O-])c2)c1 | inconclusive [inhibitor, partial curve] |
| CCC1(C)COC(C)(CC(=O)NNC(=O)Nc2ccccc2)OC1 (stereo not drawn) | inactive |
| CC(CCc1ccccc1)NC(=O)CN1CCN(c2ccc(O)cc2)CC1 (stereo not drawn) | active: 8.91 µM |
| CC1CCC(NC(=O)c2cnccn2)CC1 (stereo not drawn) | inactive |
| Cc1nc(N2CCN(c3ccccn3)CC2)c2c(C)c(C(=O)Nc3ccc(F)cc3)sc2n1 | inconclusive [inhibitor, single point] |
| Cc1ccc(C)c(N2CCN(C(=O)Cn3cccc3)CC2)c1 | inconclusive [inhibitor, single point] |
| CCOC(=O)C1CN(S(=O)(=O)c2ccc(C)cc2)CCN1S(=O)(=O)c1ccc(C)cc1 (stereo not drawn) | inconclusive [inhibitor, single point] |
| Cc1cc(C)c(S(=O)(=O)NCc2ccc3c(c2)cc(C)n3C)c(C)c1 | inconclusive [inhibitor, single point] |
| Cn1cc(CN2CCCC(CNC(=O)c3ccc4c(c3)OCO4)C2)c2ccccc21 (stereo not drawn) | inconclusive [inhibitor, partial curve] |
| CN(C)CCCNC(=O)c1cc(C(=O)C2CCCCC2)c[nH]1 | inconclusive [inhibitor, single point] |
| O=C(NN1CCN(Cc2ccccc2)CC1)c1ccc(N2CCOCC2)c([N+](=O)[O-])c1 | active: 2.24 µM |
| COc1cccc(NC(=O)c2cccc(C)c2[N+](=O)[O-])c1 | inactive |
| CCOC(=O)C1CCN(C(=O)COc2ccc(Br)cc2)CC1 | inactive |
| Cn1c(=O)c2c(ncn2C[C@@H](O)CO)n(C)c1=O | inactive |
| CCOC(=O)c1cnn(-c2c(Cc3ccccc3)c(C)nc3c(-c4ccccc4)c(C)nn23)c1N | active: 0.1 µM |
| O=C(c1cc([N+](=O)[O-])ccc1Cl)N1CCN(Cc2ccc3c(c2)OCO3)CC1 | inconclusive [inhibitor, single point] |
| CC1=C(C(=O)Nc2ccccc2)C(c2ccccc2[N+](=O)[O-])NC(=O)N1 (stereo not drawn) | inconclusive [inhibitor, single point] |
| CCN(c1ccccc1)S(=O)(=O)c1ccc(Cl)c(NC(=O)CSc2nnc(C)s2)c1 | inactive |
| COc1ccc(CN2c3cc(S(=O)(=O)N4CCOCC4)ccc3N3CCCC32)cc1 (stereo not drawn) | inconclusive [inhibitor, single point] |
| CCNc1nc(NCC)nc(N(n2cnnc2)S(=O)(=O)c2ccc(C)cc2)n1 | inconclusive [inhibitor, partial curve] |

| SMILES | Potency |
| --- | --- |
| Cc1cccc(-c2cc3nc4c(c(NCc5ccco5)n3n2)CCCC4)c1 | inconclusive [inhibitor, single point] |
| CS(=O)c1ccccc1-c1nc(-c2cccc(Cl)c2)no1 (stereo not drawn) | inactive |
| CCCc1cc(=O)oc2c(C)c3occ(C)c3cc12 | inconclusive [inhibitor, single point] |
| O=C(O)C1(O)CC(O)C(O)C(O)C1 (stereo not drawn) | inactive |
| CC(C)Oc1cccc(C(=O)NC(=S)Nc2ccc(N3CCN(C)CC3)cc2)c1 | inconclusive [inhibitor, single point] |
| Cn1ncc([N+](=O)[O-])c1C(=O)Nc1ccc(C2CCCCC2)cc1 | inactive |
| COc1ccc(N2CCN(C(=O)c3ccc(NS(=O)(=O)c4ccc(F)c(F)c4)cc3)CC2)cc1 | inactive |
| O=C(/C=C/c1ccc(Cl)c([N+](=O)[O-])c1)Nc1cccnc1 | inactive |
| Cc1cccc(OCCCC(=O)Nc2ccc3c(c2)OCO3)c1 | inconclusive [inhibitor, single point] |
| CCN1N=C(c2cc(Cl)sc2Cl)CSC1=O | inconclusive [inhibitor, single point] |
| COCCN1CCc2[nH]c(=S)[nH]c(=O)c2C1 | inconclusive [inhibitor, single point] |
| CN1CCN(CC(=O)N(Cc2c(C#N)c3ccccc3n2C)c2ccccc2)CC1 | inconclusive [inhibitor, single point] |
| CC1CC(C)CN(S(=O)(=O)c2ccccc2[N+](=O)[O-])C1 (stereo not drawn) | inconclusive [inhibitor, single point] |
| O=C1N(Cc2cccc(Cl)c2)C[C@@H]2C[C@@H](c3cccn3-c3ccccn3)N3CCC[C@@]123 | inconclusive [inhibitor, single point] |
| CCOc1ccc(-c2nnc(Nc3ccc(OC)c(C(=O)N4CCCCC4)c3)c3ccccc23)cc1 | inconclusive [inhibitor, single point] |
| COc1ccccc1NC(=O)NCCN1CCNC1=O | inactive |
| Cc1ccccc1-c1noc(N)c1C#N | inactive |
| Cc1onc(-c2ccccc2)c1C(=O)Nc1cccc2nsnc12 | inconclusive [inhibitor, partial curve] |
| COc1ccc(C)cc1NC(=O)CN1CCN(c2ccc(F)cc2)CC1 | inconclusive [inhibitor, single point] |
| Cc1cc(C)n(-c2nc(SCC(=O)NCC3CCCO3)c3c4c(sc3n2)CCCC4)n1 (stereo not drawn) | inconclusive [inhibitor, single point] |
| Oc1ccc2ccccc2c1C=Nc1ccc(Cl)cn1 | inconclusive [inhibitor, partial curve] |
| C=CCNC(=O)c1c(Cl)cccc1Cl | inconclusive [inhibitor, single point] |
| CN(C)CCOCCOc1ccc(Cl)cc1Br | inconclusive [inhibitor, single point] |
| COCC(=O)N1CCC[C@@]2(CCN(C(=O)Nc3cccc(F)c3)C2)C1 | inactive |
| O=C(CSc1nnc(-c2ccc(O)cc2)n1Cc1ccccc1)NNC(=O)c1ccc(Br)cc1 | inconclusive [inhibitor, single point] |

| SMILES | Potency |
| --- | --- |
| O=C(Nc1ccccc1)Nc1cccc2nsnc12 | inconclusive [inhibitor, partial curve] |
| CCOC(=O)CN1C(=O)C(O)(CC(=O)c2ccc3c(c2)CCCC3)c2ccccc21 (stereo not drawn) | active: 10 µM |
| CCn1c(=NC(=O)CSC(C)=O)sc2cc(F)ccc21 | inconclusive [inhibitor, partial curve] |
| CCCCCNCCCCC | inconclusive [inhibitor, single point] |
| Cn1nnc2cc(NC(=O)NCc3ccc4c(c3)OCO4)ccc21 | inconclusive [inhibitor, single point] |
| Cc1ccc(N(CC(=O)NCCSCc2ccco2)S(=O)(=O)c2ccc(F)cc2)cc1 | active: 20 µM |
| Cc1nc2c(=O)[nH]c(=S)n(C)c2nc1C | active: 7.08 µM |
| CCN(C(=O)c1cnc(NC(C)C)cc1C(F)(F)F)c1ccc(Cl)cc1Cl | inconclusive [inhibitor, single point] |
| COc1cc(CCC(=O)OCC(=O)Nc2ccccc2OC(F)F)cc(OC)c1OC | inactive |
| COc1ccc(C2=CC(c3ccc(C)cc3)n3nnnc3N2)cc1 (stereo not drawn) | inconclusive [inhibitor, partial curve] |
| O=C1CC(c2ccccc2)CC(O)=C1C=NCCN1CCN(C(=S)Nc2cccc(Cl)c2)CC1 (stereo not drawn) | inconclusive [inhibitor, partial curve] |
| CCN(CC)C(=O)COc1ccc(/C=C(\C#N)S(=O)(=O)c2ccccc2)cc1OC | inconclusive [inhibitor, partial curve] |
| Cc1cc(C)c2c(c1)[C@@H]1C=CC[C@@H]1[C@H](c1ccc(S(=O)(=O)N3CCOCC3)cc1)N2 | active: 25.1 µM |
| CCN(CC#CCC1(O)c2ccccc2-c2ccccc21)CCO | inactive |
| CCOC(=O)N1CCN(c2ncnc3c2[nH]c2ccc(OC)cc23)CC1 | inconclusive [inhibitor, partial curve] |
| NC(=O)Cn1nc([N+](=O)[O-])nc1Oc1ccc(Br)cc1 | inactive |
| Cc1cc(=O)oc2cc(O)c(CN(C)CC(=O)O)cc12 | inconclusive [inhibitor, partial curve] |
| CCOC(=O)c1ccc(N2C(=O)c3n[nH]c(C)c3C2c2ccc(OC)c(OC)c2)cc1 (stereo not drawn) | inconclusive [inhibitor, single point] |
| CC(C)(C)c1cc(C(=S)N2CCN(CCO)CC2)cc(C(C)(C)C)c1O | active: 17.8 µM |
| O=C(CSCc1cccc(CSCC(=O)Nc2ccccc2)n1)Nc1ccccc1 | inactive |
| O=C(Nc1ccccc1N1CCOCC1)c1cc2c(s1)CCCCC2 | inconclusive [inhibitor, single point] |
| CC(C)OCCCN1C=C2C(=O)C(C)(OC(=O)C3CCCC3)C(=O)C=C2C=C1c1ccsc1 (stereo not drawn) | inconclusive [inhibitor, partial curve] |
| c1ccc(-c2nnc3sc(CN4CCc5ccccc54)cn23)cc1 | inconclusive [inhibitor, single point] |
